This is one part of the list. Repeats are few or missing, and single values can be far off.
System: WM3526
Test: cell count relative to DMSO control; melanoma cells; higher = more viable cells
Settings: library dose: low library concentration; 72 h
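Also: cell number obtained by counting DAPI-stained nuclei in high-throughput microscope images with image analysis software, screen run in 1,536-well plates.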

Row | SMILES | cell count [%]
1 | CC(=O)c1c(C)c2cnc(Nc3ccc(N4CCNCC4)cn3)nc2n(C2CCCC2)c1=O [palbociclib] + Cn1cc(/C=C2\C(=O)Nc3cccnc32)c2ccccc21 [GW441756] (first compound 0.04 µM, partner dose 0.4 µM) | 73.3
2 | CO[C@H]1C[C@@H]2CC[C@@H](C)[C@@](O)(O2)C(=O)C(=O)N2CCCC[C@H]2C(=O)O[C@H]([C@H](C)C[C@@H]2CC[C@@H](OCCO)[C@H](OC)C2)CC(=O)[C@H](C)/C=C(\C)[C@@H](O)[C@@H](OC)C(=O)[C@H](C)C[C@H](C)/C=C/C=C/C=C/1C [everolimus] + Cn1nnc2c(C(N)=O)ncn2c1=O [temozolomide] (first compound 0.02 µM, partner dose 2 µM) | 59.8
3 | CC(=O)O[C@@]12CO[C@@H]1C[C@H](O)[C@@]1(C)C(=O)[C@H](O)C3=C(C)[C@@H](OC(=O)[C@H](O)[C@@H](NC(=O)OC(C)(C)C)c4ccccc4)C[C@@](O)([C@@H](OC(=O)c4ccccc4)[C@H]21)C3(C)C [Docetaxel] + NC(=O)Nc1cc(-c2cccc(F)c2)sc1C(=O)N[C@H]1CCCNC1 [AZD7762] (first compound 0.0001 µM, partner dose 0.02 µM) | 42.5
4 | Nc1nc(F)nc2c1ncn2[C@@H]1O[C@H](CO)[C@@H](O)[C@@H]1O [fludarabine] + C=CCn1c(=O)c2cnc(Nc3ccc(N4CCN(C)CC4)cc3)nc2n1-c1cccc(C(C)(C)O)n1 [MK1775] (first compound 0.2 µM, partner dose 0.02 µM) | 23.5
